# Assay results: the supplement of paper PMC8728848
# The entries come from a sample that favours the strongest signals as a whole.
# Tests used:
# Test in all cases: glycan array binding signal (z-score within array); higher = stronger binding
# Conditions in all cases: glycan notation: IUPAC condensed, linker removed
# Gal(a1-4)Gal(b1-4)GlcNAc = test system: Gal(a1-4)Gal(b1-4)GlcNAc
# How it was run: (§1)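 Glycan array data were curated from 3228 arrays in the Consortium for Functional Glycomics database and kept only where the protein sequence was available. Glycan names were converted to IUPAC-condensed notation, and columns mapping to the same glycan were averaged. The binding signal is a within-array Z-score, averaged across arrays of the same protein sequence at different concentrations or buffers and across linkers. Negative Z-scores can be read as non-binding.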
# [1] = test system: Gal(a1-3)Gal(b1-4)GlcNAc(b1-3)GalNAc
# How it was run: as §1
# [2] = test system: Gal(a1-3)Gal(b1-4)[Fuc(a1-3)]GlcNAc(b1-2)Man(a1-3)[Gal(a1-3)Gal(b1-4)[Fuc(a1-3)]GlcNAc(b1-2)Man(a1-6)]Man(b1-4)GlcNAc(b1-4)GlcNAc
# How it was run: as §1
# [3] = test system: Gal(a1-4)Gal(b1-4)GlcNAc(b1-3)Gal(b1-4)Glc
# How it was run: as §1
# Gal(a1-2)Gal = test system: Gal(a1-2)Gal
# How it was run: as §1
# Gal(a1-3)Gal(b1-4)GlcNAc = test system: Gal(a1-3)Gal(b1-4)GlcNAc
# How it was run: as §1
# Gal(a1-4)Gal(b1-4)Gal = test system: Gal(a1-4)Gal(b1-4)Gal
# How it was run: as §1
# Gal(a1-4)GlcNAc = test system: Gal(a1-4)GlcNAc
# How it was run: as §1
# Gal(a1-3)GalNAc = test system: Gal(a1-3)GalNAc
# How it was run: as §1
# [4] = test system: Gal(a1-3)Gal(b1-4)[Fuc(a1-3)]GlcNAc
# How it was run: as §1
# Gal(a1-4)Gal(b1-4)Glc = test system: Gal(a1-4)Gal(b1-4)Glc
# How it was run: as §1
# [5] = test system: Gal(a1-3)Gal(b1-3)GlcNAc(b1-2)Man
# How it was run: as §1
# [6] = test system: Gal(a1-4)Gal(b1-4)GlcNAc(b1-2)Man(a1-3)[Gal(a1-4)Gal(b1-4)GlcNAc(b1-2)Man(a1-6)]Man(b1-4)GlcNAc(b1-4)GlcNAc
# How it was run: as §1
# Fuc(b1-3)GlcNAc = test system: Fuc(b1-3)GlcNAc
# How it was run: as §1
# [7] = test system: Gal(a1-3)Gal(b1-3)[Fuc(a1-4)]GlcNAc(b1-2)Man(a1-3)[Gal(a1-3)Gal(b1-3)[Fuc(a1-4)]GlcNAc(b1-2)Man(a1-6)]Man(b1-4)GlcNAc(b1-4)GlcNAc
# How it was run: as §1
# Gal(a1-3)GlcNAc = test system: Gal(a1-3)GlcNAc
# How it was run: as §1
# [8] = test system: Gal(a1-3)Gal(b1-3)GlcNAc(b1-2)Man(a1-3)[Gal(a1-3)Gal(b1-3)GlcNAc(b1-2)Man(a1-6)]Man(b1-4)GlcNAc(b1-4)GlcNAc
# How it was run: as §1
# [9] = test system: Gal(a1-3)Gal(b1-3)GlcNAc(b1-6)GalNAc
# How it was run: as §1
# [10] = test system: Gal(a1-4)Gal(b1-3)GlcNAc(b1-2)Man(a1-3)[Gal(a1-4)Gal(b1-3)GlcNAc(b1-2)Man(a1-6)]Man(b1-4)GlcNAc(b1-4)GlcNAc
# How it was run: as §1
# Gal(a1-3)Gal(b1-4)Glc = test system: Gal(a1-3)Gal(b1-4)Glc
# How it was run: as §1
substance,measurement,setting,value
M-Ficolin (Homo sapiens) (chain not printed),glycan array binding signal (z-score),Gal(a1-4)Gal(b1-4)GlcNAc,-0.055
NCAM1 (Homo sapiens) (chain not printed),glycan array binding signal (z-score),[1],-0.112
same,glycan array binding signal (z-score),[2],1.65
same,glycan array binding signal (z-score),[3],-0.363
L-Ficolin (Homo sapiens) (chain not printed),glycan array binding signal (z-score),Gal(a1-2)Gal,-0.381
same,glycan array binding signal (z-score),Gal(a1-3)Gal(b1-4)GlcNAc,0.029
same,glycan array binding signal (z-score),Gal(a1-4)Gal(b1-4)Gal,-0.721
same,glycan array binding signal (z-score),Gal(a1-4)GlcNAc,0.182
M-Ficolin A256V (Homo sapiens) (chain not printed),glycan array binding signal (z-score),[1],-0.153
same,glycan array binding signal (z-score),[2],-0.156
same,glycan array binding signal (z-score),Gal(a1-4)GlcNAc,-0.159
Thrombomodulin Extracellular (Homo sapiens) (chain not printed),glycan array binding signal (z-score),Gal(a1-3)Gal(b1-4)GlcNAc,-0.12
same,glycan array binding signal (z-score),Gal(a1-3)GalNAc,-0.999
Gal 3 (Homo sapiens) (chain not printed),glycan array binding signal (z-score),[4],-0.321
same,glycan array binding signal (z-score),Gal(a1-4)Gal(b1-4)Glc,-0.195
H-Ficolin (Homo sapiens) (chain not printed),glycan array binding signal (z-score),[2],-0.27
same,glycan array binding signal (z-score),Gal(a1-4)GlcNAc,0.078
FGF2 (chain not printed),glycan array binding signal (z-score),[5],-0.644
CLEC-2 (Homo sapiens) (chain not printed),glycan array binding signal (z-score),Gal(a1-2)Gal,-0.051
same,glycan array binding signal (z-score),[6],1.79
Gal 8-short (Homo sapiens) (chain not printed),glycan array binding signal (z-score),Fuc(b1-3)GlcNAc,-0.783
MBP (Homo sapiens) (chain not printed),glycan array binding signal (z-score),[7],0.205
same,glycan array binding signal (z-score),Gal(a1-3)GalNAc,-0.249
M-Ficolin Y271F (Homo sapiens) (chain not printed),glycan array binding signal (z-score),[1],-0.186
same,glycan array binding signal (z-score),Gal(a1-3)Gal(b1-4)GlcNAc,-0.326
same,glycan array binding signal (z-score),Gal(a1-4)GlcNAc,-0.275
VWF (Homo sapiens) (chain not printed),glycan array binding signal (z-score),Gal(a1-4)GlcNAc,0.253
STIM-3 (Mus musculus) (chain not printed),glycan array binding signal (z-score),Gal(a1-3)GlcNAc,0.928
Meso764 (Homo sapiens) (chain not printed),glycan array binding signal (z-score),Fuc(b1-3)GlcNAc,0.208
same,glycan array binding signal (z-score),[8],1.74
same,glycan array binding signal (z-score),[9],-0.624
same,glycan array binding signal (z-score),[1],1.15
same,glycan array binding signal (z-score),[10],0.309
same,glycan array binding signal (z-score),[6],1.96
Siglec-2 (Homo sapiens) (chain not printed),glycan array binding signal (z-score),Gal(a1-3)Gal(b1-4)Glc,-0.191
same,glycan array binding signal (z-score),Gal(a1-4)Gal(b1-4)Glc,-0.234
Galectin-8 C-terminal CRD (Homo sapiens) (chain not printed),glycan array binding signal (z-score),Fuc(b1-3)GlcNAc,-0.269
same,glycan array binding signal (z-score),Gal(a1-3)Gal(b1-4)GlcNAc,-0.225
same,glycan array binding signal (z-score),Gal(a1-3)GlcNAc,-0.339
same,glycan array binding signal (z-score),Gal(a1-4)GlcNAc,-0.333
M-Ficolin G221F A256V (Homo sapiens) (chain not printed),glycan array binding signal (z-score),Gal(a1-4)Gal(b1-4)GlcNAc,-0.333
